Experimental data: the supplement of paper PMC8728848
Some of the results follow.

Key:
Assay in all cases: glycan array binding signal (z-score within array); higher = stronger binding
Conditions in all cases: glycan notation: IUPAC condensed, linker removed
[1] = biological target: GlcNAc(b1-3)Gal(b1-4)GlcNAc(b1-3)Gal(b1-4)GlcNAc(b1-3)GalNAc
Outline: (§1)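 Columns mapping to the same glycan were averaged after glycan names were converted to IUPAC-condensed notation. The data come from 3228 arrays in the Consortium for Functional Glycomics database, limited to those with an available protein sequence. Binding is reported as a within-array Z-score averaged across arrays of one protein sequence and across linkers.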

[2] = biological target: GlcNAc(b1-3)Gal(b1-4)GlcNAc(b1-3)GalNAc
Outline: as §1

[3] = biological target: GlcNAc(b1-3)Gal(b1-4)GlcNAc(b1-3)[GlcNAc(b1-3)Gal(b1-4)GlcNAc(b1-3)]GalNAc
Outline: as §1

[4] = biological target: GlcNAc(b1-3)Gal(b1-4)GlcNAc(b1-6)[Gal(b1-3)]GalNAc
Outline: as §1

[5] = biological target: GlcNAc(b1-3)Gal(b1-4)GlcNAc(b1-6)[GlcNAc(b1-3)Gal(b1-3)]GalNAc
Outline: as §1

[6] = biological target: GlcNAc(b1-3)Gal(b1-4)GlcNAc(b1-6)[GlcNAc(b1-3)]Gal(b1-4)GlcNAc
Outline: as §1

GlcNAc(b1-3)GalNAc = biological target: GlcNAc(b1-3)GalNAc
Outline: as §1

GlcNAc(b1-3)Man = biological target: GlcNAc(b1-3)Man
Outline: as §1

[7] = biological target: GlcNAc(b1-3)[GlcNAc(b1-4)][GlcNAc(b1-6)]GlcNAc
Outline: as §1

[8] = biological target: GlcNAc(b1-3)[GlcNAc(b1-6)]Gal(b1-4)GlcNAc
Outline: as §1

[9] = biological target: GlcNAc(b1-3)[GlcNAc(b1-6)]GalNAc
Outline: as §1

[10] = biological target: GlcNAc(b1-4)Gal(b1-4)GlcNAc
Outline: as §1

GlcNAc(b1-4)GlcNAc = biological target: GlcNAc(b1-4)GlcNAc
Outline: as §1

[11] = biological target: GlcNAc(b1-4)GlcNAc(b1-4)GlcNAc
Outline: as §1

[12] = biological target: GlcNAc(b1-4)GlcNAc(b1-4)GlcNAc(b1-4)GlcNAc(b1-4)GlcNAc
Outline: as §1

[13] = biological target: GlcNAc(b1-4)GlcNAc(b1-4)GlcNAc(b1-4)GlcNAc(b1-4)GlcNAc(b1-4)GlcNAc
Outline: as §1

[14] = biological target: GlcNAc(b1-4)[GlcNAc(b1-6)]GalNAc
Outline: as §1

[15] = biological target: GlcNAc(b1-6)Gal(b1-4)GlcNAc
Outline: as §1

GlcNAc(b1-6)GalNAc = biological target: GlcNAc(b1-6)GalNAc
Outline: as §1

[16] = biological target: GlcNAc6S(b1-3)Gal(b1-4)GlcNAc
Outline: as §1

Kdn(a2-3)Gal(b1-3)GalNAc = biological target: Kdn(a2-3)Gal(b1-3)GalNAc
Outline: as §1

Kdn(a2-3)Gal(b1-3)GlcNAc = biological target: Kdn(a2-3)Gal(b1-3)GlcNAc
Outline: as §1

Kdn(a2-3)Gal(b1-4)Glc = biological target: Kdn(a2-3)Gal(b1-4)Glc
Outline: as §1

Kdn(a2-3)Gal(b1-4)GlcNAc = biological target: Kdn(a2-3)Gal(b1-4)GlcNAc
Outline: as §1

[17] = biological target: Kdn(a2-3)Gal(b1-4)[Fuc(a1-3)]GlcNAc
Outline: as §1

Kdn(a2-6)Gal(b1-4)GlcNAc = biological target: Kdn(a2-6)Gal(b1-4)GlcNAc
Outline: as §1

[18] = biological target: Man(a1-2)Man(a1-2)Man(a1-3)Man
Outline: as §1

[19] = biological target: Man(a1-2)Man(a1-2)Man(a1-6)[Man(a1-3)]Man
Outline: as §1

Man(a1-2)Man(a1-3)Man = biological target: Man(a1-2)Man(a1-3)Man
Outline: as §1

[20] = biological target: Man(a1-2)Man(a1-3)[Man(a1-2)Man(a1-6)]Man
Outline: as §1

[21] = biological target: Man(a1-2)Man(a1-3)[Man(a1-2)Man(a1-6)]Man(a1-6)[Man(a1-2)Man(a1-2)Man(a1-3)]Man
Outline: as §1

[22] = biological target: Man(a1-2)Man(a1-3)[Man(a1-2)Man(a1-6)]Man(a1-6)[Man(a1-2)Man(a1-2)Man(a1-3)]Man(b1-4)GlcNAc(b1-4)GlcNAc
Outline: as §1

[23] = biological target: Man(a1-2)Man(a1-3)[Man(a1-6)]Man(a1-6)[Man(a1-2)Man(a1-3)]Man(b1-4)GlcNAc(b1-4)GlcNAc
Outline: as §1

[24] = biological target: Man(a1-2)Man(a1-6)[Man(a1-3)]Man(a1-6)[Man(a1-2)Man(a1-2)Man(a1-3)]Man
Outline: as §1

[25] = biological target: Man(a1-2)Man(a1-6)[Man(a1-3)]Man(a1-6)[Man(a1-2)Man(a1-2)Man(a1-3)]Man(b1-4)GlcNAc(b1-4)GlcNAc
Outline: as §1

Man(a1-3)[Man(a1-6)]Man = biological target: Man(a1-3)[Man(a1-6)]Man
Outline: as §1

[26] = biological target: Man(a1-3)[Man(a1-6)]Man(a1-6)[Man(a1-2)Man(a1-3)]Man(b1-4)GlcNAc(b1-4)GlcNAc
Outline: as §1

[27] = biological target: Man(a1-3)[Man(a1-6)]Man(a1-6)[Man(a1-3)]Man
Outline: as §1

[28] = biological target: Man(a1-3)[Man(a1-6)]Man(a1-6)[Man(a1-3)]Man(b1-4)GlcNAc(b1-4)GlcNAc
Outline: as §1

[29] = biological target: Man(a1-3)[Man(a1-6)]Man(b1-4)GlcNAc(b1-4)GlcNAc
Outline: as §1

[30] = biological target: Man(a1-3)[Man(a1-6)]Man(b1-4)GlcNAc(b1-4)[Fuc(a1-6)]GlcNAc
Outline: as §1

Man(a1-6)Man = biological target: Man(a1-6)Man
Outline: as §1

Man(b1-4)GlcNAc = biological target: Man(b1-4)GlcNAc
Outline: as §1

MurNAc(b1-4)GlcNAc = biological target: MurNAc(b1-4)GlcNAc
Outline: as §1

Neu5Ac(a2-3)Gal = biological target: Neu5Ac(a2-3)Gal
Outline: as §1

B1: PX14375F-bfa-539-21-539 (Bacteroides fragilis) (protein)
chain: EDFLQKDPPSSPSQSVFWQKKSDFESALAGTYSVMYSGVFSQIMPCLDGLTDNAIVQHSEGTYGWAKTIAQGDLTPNQGGFVTDIYGNCYKGIARVHILMEQLDQYTGSDISADEKKFMLAQCKALRGYFYSWLYQCYKEVPVVTQSLDLNTMYQPKATRAEVLNRVMTDYDEAISELPDKLYSDSQTSGRFTVSAVKALKARILLFDAYDSNGKAISSKMEEVLTLLQSIKGYSLAARVRDNFISEKQLASPEIMFSVRFLRPNLTHSMDLYYGAWAVLDPTRNMVDAFECTDGKPWGESPLTVRPDESILYGNDDALKKAERAKMFMNRDRRLYESVNHSMMANFVDDGFKDEEVQVNESNNKGPTGFSALKYVQPTDVTPGYSTVSDADIVVLRYAHVLLMIAEAENEAHGATTTALNAINEVRTRSGQPAIEAGISQDDLRERIRNEWRIETCFEGLRYFQLKRWKLMDKRVNGVEDPAYPGYIKVYKPAFEFFPIPQSEIDKAGGVLKQDPAYE
Q: Which “glycan array binding signal (z-score)” value [1] does the source give for B1 here?
A: 0.228

Q: What about the “glycan array binding signal (z-score)” value [2] of the same binder?
A: -0.336

Q: And the “glycan array binding signal (z-score)” value [3]?
A: 0.54

Q: And the “glycan array binding signal (z-score)” value [4]?
A: 0.886

Q: And the “glycan array binding signal (z-score)” value [5]?
A: 0.349

Q: What about the “glycan array binding signal (z-score)” value [6] of the same binder?
A: -0.811

Q: And the “glycan array binding signal (z-score)” value (GlcNAc(b1-3)GalNAc)?
A: -0.8

Q: What about the “glycan array binding signal (z-score)” value (GlcNAc(b1-3)Man) of the same binder?
A: -0.467

Q: And the “glycan array binding signal (z-score)” value [7]?
A: 0.067

Q: What about the “glycan array binding signal (z-score)” value [8] of the same binder?
A: 0.023

Q: What about the “glycan array binding signal (z-score)” value [9] of the same binder?
A: -0.03

Q: What about the “glycan array binding signal (z-score)” value [10] of the same binder?
A: -0.102

Q: And the “glycan array binding signal (z-score)” value (GlcNAc(b1-4)GlcNAc)?
A: -0.51

Q: What about the “glycan array binding signal (z-score)” value [11] of the same binder?
A: -0.55

Q: What about the “glycan array binding signal (z-score)” value [12] of the same binder?
A: -0.169

Q: What about the “glycan array binding signal (z-score)” value [13] of the same binder?
A: -0.189

Q: And the “glycan array binding signal (z-score)” value [14]?
A: -0.818

Q: And the “glycan array binding signal (z-score)” value [15]?
A: -0.364

Q: What about the “glycan array binding signal (z-score)” value (GlcNAc(b1-6)GalNAc) of the same binder?
A: -0.342

Q: What about the “glycan array binding signal (z-score)” value [16] of the same binder?
A: 0.711

Q: And the “glycan array binding signal (z-score)” value (Kdn(a2-3)Gal(b1-3)GalNAc)?
A: -0.258

Q: What about the “glycan array binding signal (z-score)” value (Kdn(a2-3)Gal(b1-3)GlcNAc) of the same binder?
A: -0.782

Q: What about the “glycan array binding signal (z-score)” value (Kdn(a2-3)Gal(b1-4)Glc) of the same binder?
A: -0.445

Q: And the “glycan array binding signal (z-score)” value (Kdn(a2-3)Gal(b1-4)GlcNAc)?
A: -0.831

Q: What about the “glycan array binding signal (z-score)” value [17] of the same binder?
A: -0.558

Q: What about the “glycan array binding signal (z-score)” value (Kdn(a2-6)Gal(b1-4)GlcNAc) of the same binder?
A: -0.206

Q: What about the “glycan array binding signal (z-score)” value [18] of the same binder?
A: -0.844

Q: And the “glycan array binding signal (z-score)” value [19]?
A: -0.687

Q: What about the “glycan array binding signal (z-score)” value (Man(a1-2)Man(a1-3)Man) of the same binder?
A: -0.201

Q: What about the “glycan array binding signal (z-score)” value [20] of the same binder?
A: -0.626

Q: And the “glycan array binding signal (z-score)” value [21]?
A: 0.01

Q: And the “glycan array binding signal (z-score)” value [22]?
A: 0.35

Q: What about the “glycan array binding signal (z-score)” value [23] of the same binder?
A: -0.236

Q: What about the “glycan array binding signal (z-score)” value [24] of the same binder?
A: -0.318

Q: And the “glycan array binding signal (z-score)” value [25]?
A: 0.057

Q: What about the “glycan array binding signal (z-score)” value (Man(a1-3)[Man(a1-6)]Man) of the same binder?
A: -0.656

Q: And the “glycan array binding signal (z-score)” value [26]?
A: -0.266

Q: What about the “glycan array binding signal (z-score)” value [27] of the same binder?
A: -0.3

Q: What about the “glycan array binding signal (z-score)” value [28] of the same binder?
A: -0.28

Q: What about the “glycan array binding signal (z-score)” value [29] of the same binder?
A: -0.605

Q: What about the “glycan array binding signal (z-score)” value [30] of the same binder?
A: 0.184

Q: What about the “glycan array binding signal (z-score)” value (Man(a1-6)Man) of the same binder?
A: -0.641

Q: What about the “glycan array binding signal (z-score)” value (Man(b1-4)GlcNAc) of the same binder?
A: -0.448

Q: And the “glycan array binding signal (z-score)” value (MurNAc(b1-4)GlcNAc)?
A: -0.015

Q: What about the “glycan array binding signal (z-score)” value (Neu5Ac(a2-3)Gal) of the same binder?
A: 0.06
